# About 2,200 (0.71%) of roughly 310,000 compounds showed an effect of 50% or more. The effect is printed as a negative number. Some of the results follow.
# Target: human ether-à-go-go-related gene (hERG) potassium channel (human, UniProt Q12809)
# Assay: primary screen, population patch clamp on CHO cells stably expressing hERG
# Sequence of human ether-à-go-go-related gene (hERG) potassium channel (Q12809 whole entry, looked up): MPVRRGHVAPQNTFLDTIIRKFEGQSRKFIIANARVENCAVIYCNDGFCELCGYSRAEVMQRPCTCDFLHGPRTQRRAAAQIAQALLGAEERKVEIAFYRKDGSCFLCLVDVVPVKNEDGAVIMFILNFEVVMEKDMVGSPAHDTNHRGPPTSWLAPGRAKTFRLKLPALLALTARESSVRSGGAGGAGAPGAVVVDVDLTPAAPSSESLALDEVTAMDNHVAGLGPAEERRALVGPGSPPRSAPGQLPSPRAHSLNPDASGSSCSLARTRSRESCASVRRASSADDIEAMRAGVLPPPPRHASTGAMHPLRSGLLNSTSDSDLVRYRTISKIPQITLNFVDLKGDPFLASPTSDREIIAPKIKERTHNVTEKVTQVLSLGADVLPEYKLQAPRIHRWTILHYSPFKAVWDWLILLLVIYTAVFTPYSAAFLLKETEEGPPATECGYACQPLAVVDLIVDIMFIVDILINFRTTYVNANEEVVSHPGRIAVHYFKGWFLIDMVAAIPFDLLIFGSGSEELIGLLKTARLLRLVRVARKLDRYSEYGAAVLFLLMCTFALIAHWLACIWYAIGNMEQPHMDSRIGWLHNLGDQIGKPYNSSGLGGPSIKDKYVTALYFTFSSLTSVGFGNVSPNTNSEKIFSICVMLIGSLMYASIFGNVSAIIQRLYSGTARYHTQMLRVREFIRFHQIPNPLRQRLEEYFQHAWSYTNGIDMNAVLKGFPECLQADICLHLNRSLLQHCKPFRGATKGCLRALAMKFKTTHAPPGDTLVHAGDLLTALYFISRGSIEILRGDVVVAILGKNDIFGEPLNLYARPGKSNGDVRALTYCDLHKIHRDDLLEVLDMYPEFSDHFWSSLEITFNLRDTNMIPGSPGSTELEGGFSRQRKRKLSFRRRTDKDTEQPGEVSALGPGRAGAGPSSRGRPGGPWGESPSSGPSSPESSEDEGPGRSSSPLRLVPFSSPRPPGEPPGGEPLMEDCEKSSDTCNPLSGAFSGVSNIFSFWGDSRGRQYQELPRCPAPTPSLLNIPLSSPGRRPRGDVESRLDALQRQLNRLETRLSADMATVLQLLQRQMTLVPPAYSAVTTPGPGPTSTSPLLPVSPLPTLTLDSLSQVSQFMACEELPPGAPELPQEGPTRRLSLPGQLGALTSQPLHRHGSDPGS
row,SMILES,"hERG current change (%, negative = inhibition) at 1uM"
1,O=C(c1ccc([N+](=O)[O-])s1)N1CCN(c2ccc(C(F)(F)F)cn2)CC1,-35%
2,C=CCS(=O)(=O)c1nc2ccccc2s1,12.8%
3,COc1ccc(/C=N/NC(=O)c2ccc(F)cc2)cc1CN1CCc2cc(OC)c(OC)cc2C1C (stereo not drawn),-99.1%
4,COc1ccc2c(c1)c(CC(=O)OC(C)C(=O)N(C)C)c(C)n2C(=O)c1ccc(Cl)cc1 (stereo not drawn),-1.81%
5,O=C(Nc1ccccn1)c1ccc(C(=O)c2ccccc2)cc1,7.17%
6,CSc1ccccc1OCc1cc(C(=O)N(C)C(C)c2nc(C)cs2)no1 (stereo not drawn),-23.9%
7,C(=N\Nc1nc2ccccc2[nH]1)/c1ccncc1,14.2%
8,COc1cc(OC)cc(-c2nnc(SCC(=O)N(C(C)C)C(C)C)o2)c1,3.08%
9,CC(C)Oc1cccc(C(=O)O)c1,7.04%
10,Cc1c(C)c2ccc(OCC(=O)N(C)C3CCS(=O)(=O)C3)c(C)c2oc1=O (stereo not drawn),27.6%
11,CCCCN1CCC(C#N)(Nc2ccccc2)CC1,9.89%
12,Nn1c(SCC(=O)Nc2ccc3c(c2)OCO3)nncc1=O,12%
13,CCOC(=O)Cc1c(C)nc2cc(-c3ccc(C(C)(C)C)cc3)[nH]n2c1=O,-5.14%
14,CCN(C(=O)COC(=O)/C=C/c1c(C)nn(-c2ccccc2)c1C)C1CCS(=O)(=O)C1 (stereo not drawn),6.62%
15,COc1cccc(-c2nc(=S)c3c(n2Cc2ccco2)CCCC3)c1,8.86%
16,CCOc1ccc(NC(=S)NC(=O)/C=C/c2ccc(OC)cc2)c([N+](=O)[O-])c1,8.86%
17,Cc1cc(NC(=O)CCCn2nc([N+](=O)[O-])c(Br)c2C)no1,5.68%
18,NCCCS(=O)(=O)O,11.6%
19,CC1=NN(c2ccccc2)C(=O)C1/C=C1\C(=O)NC(=O)N(c2cc(C)cc(C)c2)C1=O (stereo not drawn),10.6%
20,CCn1c(O)c(/C=N/NC(=O)c2ccncc2)c(=O)[nH]c1=S,19.4%
21,COc1cccc(NC(=O)c2cnc(SCC(=O)NCc3ccc4c(c3)OCO4)n(C)c2=O)c1,12.2%
22,CC1=NNC(=O)/C1=C\c1cn(-c2ccccc2)nc1-c1ccc(Cl)cc1,2.82%
23,Cc1cc(N2CCOCC2)nc2ccc(NC(=O)CCC(=O)N3CCN(c4ccccc4F)CC3)cc12,15.1%

row,SMILES,"hERG current change (%, negative = inhibition) at 1uM"
1,CC(C)OC(=O)CSc1nnc(-c2ccccn2)n1C,9.65%
2,CCOc1nc(Nc2ccc(OC)cc2OC)nc(OCC)n1,9.98%
3,Cc1cc(C)cc(CC2CC(=O)N(c3cc(C)on3)C2=O)c1 (stereo not drawn),12%
4,Oc1c(C=Nc2cccnc2)sc2ccccc12,12.9%
5,COc1ccc(/C=N/Nc2nc(-c3cccnc3)nc3ccccc23)cc1OC,-5.12%
6,O=C(Cn1cc(S(=O)(=O)Cc2ccc([N+](=O)[O-])cc2)c2ccccc21)N1CCOCC1,14.6%
7,Cn1nc(-c2ccccc2)nc1-c1ccccc1,-0.0145%
8,Cc1ccc(NS(=O)(=O)c2ccccc2[N+](=O)[O-])cc1C,7.05%
9,COc1cccc(NC(=O)CCNS(=O)(=O)c2ccc3c(c2)oc(=O)n3C)c1,7.98%
10,O=C(CSc1ccc(-c2cccnc2)nn1)N1CCCCC1,14.1%
11,CCCCN1CCCC1CNC(=O)c1cc(C#N)c2ccccc2c1OC (stereo not drawn),-43.1%
12,CCOC(=O)c1c(C)n(-c2ccccc2)c2ccc(O)c(CN(C)C)c12.Cl,7.01%
13,O=C(O)C1CCC(=O)N(C2CC2)C1c1ccccc1 (stereo not drawn),18%
14,S=C(NCc1ccccc1)N1CCN(c2cccc(Cl)c2)CC1,4.35%
15,CCCCN1C(=O)C2C3C=CC(C2C1=O)C1C2C(=O)N(CCCC)C(=O)C2C31 (stereo not drawn),-10.9%
16,O=C(CCc1nnc2ccc(NCc3ccc(F)cc3)nn12)NC1CCCC1,9.56%
17,CC(C)NC(=O)NC(=O)CSc1ccccc1F,4.81%
18,Cc1ccc(Nc2cc(C(=O)NCCCN3CCOCC3)c3ccccc3n2)c(C)c1,4.55%
19,COc1ccc(NC(=O)CSc2nnc(-c3cccs3)n2-c2ccccc2)cc1,-5.84%
20,CCn1nc(C)cc1C(=O)Sc1ccc(Cl)cc1Cl,11.1%
21,O=C1CC(c2ccccc2)c2c(O)cc(O)cc2O1 (stereo not drawn),8.1%
22,CC[n+]1ccc(C)c2cc(S(=O)C(F)(F)F)ccc21.Cc1ccc(S(=O)(=O)[O-])cc1 (stereo not drawn),-2.44%
23,O=C(OCC(=O)c1ccc[nH]1)c1ccc2ccccc2n1,13.1%

row,SMILES,"hERG current change (%, negative = inhibition) at 1uM"
1,Br.Cn1c(=N)n(CC(=O)c2ccc(Cl)c(Cl)c2)c2ccccc21,-11%
2,COCCn1c(CN2CCN(c3ccc(OC)cc3)CC2)nc2c1c(=O)n(C)c(=O)n2C,6.54%
3,O=C(NCc1ccco1)c1cc(-c2ccc(Cl)cc2)on1,26.4%
4,O=[N+]([O-])c1ccc(SCCc2cc[nH+]cc2)cc1.[Cl-],-5.18%
5,CNC(=O)COC(=O)c1ccc2c(c1)S(=O)(=O)c1ccccc1C2=O,11.3%
6,O=S(=O)(NCc1ccc(F)cc1)c1cccc(S(=O)(=O)N2CCOCC2)c1,-4.7%
7,COc1cc(OC)cc(C(=O)N[C@@H](CCSC)c2nc3ccccc3[nH]2)c1,20.3%
8,COc1ccc(CNC(=O)CSCc2ccccc2Cl)cc1,10.1%
9,Cc1nc(N)sc1N=Nc1ccc(F)cc1,-1.66%
10,Cc1cc(Br)ccc1OCCCCN1CCC(C)CC1.O=C(O)C(=O)O,-47.7%
11,CCCC(C)NC(=O)c1cc(C(=O)OC)cc([N+](=O)[O-])c1 (stereo not drawn),7.72%
12,CN(C)C=O.N#Cc1c(N)nc2c3c(sc(=N)c2c1N)NC(=O)CC3c1ccccc1Cl (stereo not drawn),15.1%
13,COC(=O)Cc1csc(NC(=O)CSc2nnc3ccccn23)n1,15.7%
14,N/C(Cc1ccc(Cl)cc1)=N\OC(=O)c1cccc2ccccc12,10.2%
15,O=C(NNC(=S)NC(=O)c1ccc(F)cc1)c1cccnc1,15.8%
16,CCOc1cc(/C=C/c2nc3cc(C)c(C)cc3s2)ccc1OCC(=O)N1CCOCC1,6.46%
17,COC(=O)c1ccc(C2=NOC(C)(c3sc(-c4ccccc4)nc3C)C2)cc1 (stereo not drawn),23.4%
18,Cn1c(=O)c2c(nc(CN3CCOCC3)n2CCN2CCOCC2)n(C)c1=O,7.62%
19,CC(C)CC(NC(=O)CC12CC3CC(CC(C3)C1)C2)C(=O)NC1=NCCS1 (stereo not drawn),23.2%
20,Nc1ccccc1Sc1c[nH]c2ccccc12,14.1%
21,O=S(=O)(c1ccc(Oc2ccc(Br)cc2)cc1)N1CCOCC1,5.92%
22,COc1ccc(S(=O)(=O)NNC(=O)C23CC4CC(CC(C4)C2)C3)cc1[N+](=O)[O-],11.6%
23,O=C(CCc1ccccc1)n1nc(-c2ccccc2)nc1NCc1ccco1,15.6%

row,SMILES,"hERG current change (%, negative = inhibition) at 1uM"
1,OCCN(C=NC1=NN(c2cccc(C(F)(F)F)c2)CC1)CCO,7.14%
2,COc1ccc(C2C(C(=O)NCCN3CCOCC3)c3ccccc3C(=O)N2C)cc1OC (stereo not drawn),12.4%
3,C=CCn1c(SCC(=O)NCCCC(=O)OCC)nc2scc(-c3ccco3)c2c1=O,-17.2%
4,COCCNC(=O)c1ccc(CSc2nc3ccccc3s2)cc1,3.95%
5,CCCOC(=O)Nc1c(C)cccc1C(C)C,6.18%
6,O=C(NC(=S)N1CCN(c2c(Cl)cccc2[N+](=O)[O-])CC1)c1cccs1,9.7%
7,OCCN(CCO)c1nc2ccccc2[nH]1,6.28%
8,COC(=O)COc1ccc(S(=O)(=O)NCc2ccncc2)cc1,-0.0031%
9,Cc1ccc(Sc2c(CO)c(-c3ccccc3)nn2C)cc1,8.89%
10,Cc1cc2ncc(C(=O)N=CN(C)C)cn2n1,3.01%
11,Cc1ccc(CNC(=O)Cc2cn(C)c3ccccc23)cc1,14.1%
12,CCOc1ccccc1-c1nc(CN2CCCC2c2nccs2)c(C)o1 (stereo not drawn),14.1%
13,C=CCSc1nc(N)c2c(C)c(C)sc2n1,-9.39%
14,CC1(C)CC(=O)C=C(NCCN2CCN(C(=O)Nc3ccc(Cl)c(Cl)c3)CC2)C1,6.23%
15,O=C(Nc1c2c(nc3ccccc13)CCCC2)c1cccc([N+](=O)[O-])c1,5.18%
16,CCC(C)c1ccc(S(=O)(=O)N2CCN(c3ccccn3)CC2)cc1 (stereo not drawn),15.4%
17,Cc1ccc(S(=O)(=O)NC(=O)Nc2c(C)cccc2C)cc1,11.3%
18,CC12CN(S(=O)(=O)c3ccccc3)CC(C)(CN(S(=O)(=O)c3ccccc3)C1)C2,-3.94%
19,CCOc1ccc(OCCSc2nc(-c3ccccc3)cc(=O)[nH]2)cc1,17.9%
20,CCC1CCCCN1C(=O)CSc1nc(N)cc(=O)[nH]1 (stereo not drawn),13.2%
21,CC1(C)CC(=O)C=C(Nc2ccc(F)cc2F)C1,9.38%
